Results: paper PMC4336329 (PLoS ONE, 2015)
The campaign covered roughly 310,000 compounds. About 14,000 (4.5%) showed an effect of 50% or more. The effect is printed as a negative number. The list shows a part of the results.

Molecular target: human ether-à-go-go-related gene (hERG) potassium channel (human, UniProt Q12809)
Test: primary screen, population patch clamp on CHO cells stably expressing hERG
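Also: peak tail current of the secondary pulse compared with the same well before compound.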

human ether-à-go-go-related gene (hERG) potassium channel, sequence (Q12809 whole entry, looked up): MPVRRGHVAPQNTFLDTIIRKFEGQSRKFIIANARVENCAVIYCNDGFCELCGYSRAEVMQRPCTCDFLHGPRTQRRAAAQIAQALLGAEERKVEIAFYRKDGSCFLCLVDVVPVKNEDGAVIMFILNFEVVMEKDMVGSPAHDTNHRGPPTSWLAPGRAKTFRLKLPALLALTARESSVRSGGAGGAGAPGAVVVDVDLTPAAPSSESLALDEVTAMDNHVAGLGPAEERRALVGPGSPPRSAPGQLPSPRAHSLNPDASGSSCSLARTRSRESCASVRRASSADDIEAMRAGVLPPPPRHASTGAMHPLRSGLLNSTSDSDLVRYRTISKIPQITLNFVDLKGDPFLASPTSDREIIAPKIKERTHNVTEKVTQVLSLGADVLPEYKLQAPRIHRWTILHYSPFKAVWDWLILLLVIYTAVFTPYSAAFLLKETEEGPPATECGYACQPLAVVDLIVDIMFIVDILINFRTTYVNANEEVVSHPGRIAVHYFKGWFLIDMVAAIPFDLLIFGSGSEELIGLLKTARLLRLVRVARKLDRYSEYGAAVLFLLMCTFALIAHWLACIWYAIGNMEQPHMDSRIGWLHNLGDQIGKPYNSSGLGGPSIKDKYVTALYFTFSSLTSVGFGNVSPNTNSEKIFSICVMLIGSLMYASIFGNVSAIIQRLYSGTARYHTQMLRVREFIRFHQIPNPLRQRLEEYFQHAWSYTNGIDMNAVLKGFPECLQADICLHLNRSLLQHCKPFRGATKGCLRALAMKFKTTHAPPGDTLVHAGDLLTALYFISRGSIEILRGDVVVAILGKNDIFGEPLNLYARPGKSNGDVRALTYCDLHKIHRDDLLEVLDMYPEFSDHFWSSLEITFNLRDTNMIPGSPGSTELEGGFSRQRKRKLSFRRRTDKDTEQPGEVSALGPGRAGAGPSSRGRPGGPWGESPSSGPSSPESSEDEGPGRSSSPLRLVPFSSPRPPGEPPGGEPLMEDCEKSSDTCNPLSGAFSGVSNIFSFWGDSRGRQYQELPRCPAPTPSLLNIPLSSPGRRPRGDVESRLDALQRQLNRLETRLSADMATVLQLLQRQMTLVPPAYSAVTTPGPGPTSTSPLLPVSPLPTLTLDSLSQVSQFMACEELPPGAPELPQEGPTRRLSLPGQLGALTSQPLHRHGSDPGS

SMILES	hERG current change (%, negative = inhibition) at 10uM
CC(=O)Nc1ccc(NC(=O)CC(c2ccccc2)c2ccccc2)cc1	22.6%
Cc1c(C=O)c2ccccc2n1Cc1ccccc1	-2.16%
COc1cc(C(O)c2nc3ccccc3n2C(C)C)cc(OC)c1OC (stereo not shown)	7.53%
Cc1ccc(NC(=O)c2cnn(-c3ccccc3)c2C)c(C)c1	-0.951%
O=C(c1c[nH]c(C(=O)C(Cl)(Cl)Cl)c1)c1ccc(F)cc1Cl	13.4%
O=C(Nc1ccccc1)c1ccc(Br)c(S(=O)(=O)Nc2ccccn2)c1	14.5%
C=C1N(c2ccccc2)C(=O)OC1(C)C	3.85%
Cn1ncc(Cl)c1C(=O)N1CCN(S(=O)(=O)c2ccc(F)cc2)CC1	-14.8%
CCOC(=O)N(Cc1ccccc1)C(C(=O)O)C(C(=O)O)N(Cc1ccccc1)C(=O)OCC (stereo not shown)	13.3%
CCOc1ccc(N2C(=O)c3ccccc3C2O)cc1 (stereo not shown)	-3.04%
O=C(NCCN1CCOCC1)C(=O)NCC1OCCN1S(=O)(=O)c1cc(F)ccc1F (stereo not shown)	14.1%
CC(C)(Oc1ccc(Cl)cc1)C(=O)NCCN1C(=O)S/C(=C/c2cccnc2)C1=O	-62.9%
Br.c1cc2c(cc1-c1csc(NNC3=NCCCCC3)n1)OCCO2	-5.63%
Cl.N=C1CCCN1c1ccccc1O	11.2%
O=C(Cc1cccc2ccccc12)NCCC1=CCCCC1	-1.41%
O=C(c1ccc2ccccc2n1)N1CCN(Cc2c(F)cccc2Cl)CC1	-4.81%
CC(O)c1cccc(NC(=O)CC(c2ccccc2)c2ccccc2)c1 (stereo not shown)	7.9%
Cc1cc(C)nc(N2CCN(C(=O)c3ccc(S(=O)(=O)N4CCCCCC4)cc3)CC2)n1	7.66%
O=C(CCn1c(=O)oc2ccccc21)Nc1ccccc1	13.8%
O=C(Nc1nccs1)C1CCN(S(=O)(=O)c2cnc[nH]2)CC1	11.8%
CC(C(=O)NC1C=CS(=O)(=O)C1)N1C(=O)/C(=C/c2cccc(Cl)c2)SC1=S (stereo not shown)	-2.47%
CC1CCN(c2nc3ccc(C(=O)N4CCN(Cc5ccc6c(c5)OCO6)CC4)cc3s2)CC1	-3.06%

SMILES	hERG current change (%, negative = inhibition) at 10uM
COc1ccc(CCN(C)S(=O)(=O)c2cn(C)c(=O)n(C)c2=O)cc1OC	5.74%
Cc1ccccc1Nc1ncnc2c1cnn2-c1ccccc1	-5.11%
Cc1ccc(-c2cc(C(=O)OCC(=O)NC3CC3)c3ccccc3n2)cc1	-1.91%
C/C(=N\NC(=O)c1ccc(NS(=O)(=O)c2cccs2)cc1)c1ccccc1	22.3%
O=C(O)C(=O)O.c1ccc(OCCOCCN2CCN(C(c3ccccc3)c3ccccc3)CC2)cc1	-72.7%
COc1c(C(O)CC(C)C)ccc2c1C(=O)OCc1cc(C)cc(O)c1O2 (stereo not shown)	-4.77%
CCCOc1ccc(C(C)=O)cc1CC(C(=O)OCC)C(=O)OCC	1.47%
O=C(N/C(=C/c1ccc(Br)cc1)C(=O)N1CCCC1)c1cccs1	-24.4%
Cc1[nH]c2ccccc2c1CCN(Cc1cccnc1)C(=S)Nc1cccc(F)c1	11.4%
CC(C)CSc1oc(-c2ccco2)nc1S(=O)(=O)c1ccccc1	-19.7%
CSCC[C@H](NC(=O)Nc1ccc(C)cc1C)C(=O)O	1.58%
CCOc1ccc2nc(SCC(=O)Nc3cc4c(cc3C(C)=O)OCO4)[nH]c2c1	-25.5%
Cn1cccc1C(=O)N1CCN(c2cccc(C(F)(F)F)c2)CC1	-1.08%
Nc1nc(SCC(=O)NCc2ccco2)[nH]c(=O)c1-c1ccccc1	22.3%
Cc1cc(Br)c(NC(=O)c2ccccc2[N+](=O)[O-])cc1C	16.7%
CC1=CC(C)(C)Nc2ccc(OC(=O)c3ccco3)cc21	-0.0756%
COc1ccccc1OCC(=O)Nc1ccc(CSc2ccccc2)cc1C	-1.28%
COc1ccc(CNc2ccc3c(c2)ncn3-c2ccccc2OC)cc1	-23%
Cc1ccc2c(c1)N(CC(=O)N1CCN(C3CCCCC3)CC1)C(=O)CO2	-18.5%
C=C(Br)CN1CCN(CC(=C)Br)CC1	3.96%
O=c1[nH]c(CSc2ccccn2)nc2ccccc12	-2.72%
O=C(CNC(=O)c1ccc(Br)cc1)c1ccccc1	19.1%

SMILES	hERG current change (%, negative = inhibition) at 10uM
COc1ccc(C(=O)OCC(=O)N2CCOCC2)cc1S(=O)(=O)N1CCOCC1	10.1%
CC(Sc1nc2c(c(=O)[nH]1)CCCC2)C(=O)Nc1ccccc1C#N (stereo not shown)	17.1%
CCOC(=O)c1c(C)[nH]c(O)c1C=Nc1ccccc1	10.9%
O=C(Nc1ccc(N2CCN(C(=O)c3ccco3)CC2)cc1)c1ccccc1Br	12.4%
CCN1C(=O)N[C@@H](c2ccccc2)[C@H](C(=O)OC)[C@H]1C	-6.4%
Cc1ccccc1Nc1nc(N)nc(CN(C)Cc2ccccc2Cl)n1	-1.85%
NC(=O)c1ccccc1NC(=O)Nc1cccc(Cl)c1	-8.62%
Fc1cccc(NC(=S)NCc2ccccn2)c1	4%
O=c1c2ccccc2c(-c2ccccc2)nn1-c1cc(Cl)ccc1[N+](=O)[O-]	-8.17%
COc1ccc(-c2cc(C(=O)NC3CCCC3)no2)cc1	3.17%
CCn1nc(C)cc1C(=O)N1CCCC(N2CCN(Cc3ccc4c(c3)OCO4)CC2)C1 (stereo not shown)	7.03%
COc1ccc(S(=O)(=O)N2CCOCC2)cc1NC(=O)c1ccc2c(c1)OCO2	12.6%
O=C(Nc1ccc(C(F)(F)F)cc1)c1cccc(-n2cnnn2)c1	-11.4%
COc1cccc(OC)c1C(=O)Nc1ccccc1NC(=O)c1c(OC)cccc1OC	24.1%
COCCCNC(=O)c1c(NC(=O)c2cccs2)sc2c1CCCC2	2.08%
COc1c(/C=C2\SC(=Nc3ccccc3Cl)NC2=O)cccc1[N+](=O)[O-]	12.1%
Cc1[nH]nc(Nc2ccc(C(C)C)cc2)c1[N+](=O)[O-]	12.7%
Cc1cc(=O)oc2cc(OCC(=O)N3c4ccccc4CC3C)ccc12 (stereo not shown)	15.2%
Cc1ccc(Cn2c(C(C)Nc3nc(C)cs3)nc3cc(Cl)c(Cl)cc32)cc1 (stereo not shown)	16%
COc1ccc(C)cc1NC(=O)C1CC(=O)N(Cc2ccco2)C1 (stereo not shown)	-0.0428%
CC(Oc1ccc(Br)cc1)C(=O)Nc1cc(S(=O)(=O)N2CCOCC2)ccc1N1CCCC1 (stereo not shown)	-5.62%
CN1CCOCCOCCOCCN(C)C1=S	17.2%

SMILES	hERG current change (%, negative = inhibition) at 10uM
CC(C)N(Cc1cc2ccccc2[nH]c1=O)C(=O)c1cccc([N+](=O)[O-])c1	-13.4%
CC(C)=C1SC(N2CCN(c3cccc(Cl)c3)CC2)=NC1=O	6.89%
CC(C)c1nc(-c2ccccn2)no1	-5.09%
CCOCCCNC(=O)C(c1ccc(C)cc1)N(Cc1cccs1)C(=O)c1ccccn1 (stereo not shown)	1.69%
O=C(c1ccc(F)cc1)N1CCN(c2ccc(N3CCOCC3)nn2)CC1	-12%
COc1cc(C)c(CN2CCC(Oc3ccc(C(=O)N4CCCC4)cc3)CC2)cc1C	-43.1%
CCOC(=O)c1c2c3c(cccc3n(C)c1=O)C(=O)c1ccccc1-2	-71.8%
CCCCOc1ccc(/C=N/NC(=S)Nc2cccc(C)c2C)cc1	-15.8%
c1csc(-c2nc3ccccc3s2)c1	-45.1%
Cc1cccc(CN2C(=O)[C@@H]3Cc4c([nH]c5ccccc45)C(C)(C)N3C2=O)c1	-0.614%
Cc1ccc(-c2ccc(/C=N/NC(=O)CN3CCCC3)o2)cc1Cl	-90.2%
Cc1cc(OC(C)C(=O)NNC(=O)Nc2ccc(F)cc2F)cc(C)c1Cl (stereo not shown)	22.3%
O=c1ccnc(SCCc2ccccc2)[nH]1	17.2%
CCOC(=O)c1ccc(S(=O)(=O)N2CCN(CC(O)COc3cccc(C(C)=O)c3)CC2)cc1.O=C(O)C(=O)O (stereo not shown)	-6.64%
CSC1=C(C#N)C(C)C2=C(CC(C)(C)CC2=O)N1 (stereo not shown)	-0.415%
COc1ccc(NC(=O)CSc2nnc(C3CC3)n2-c2ccccc2)cc1	-18%
CC(C)Cn1c2c(c(O)c(C(=O)Nc3ncccc3O)c1=O)CCCC2	-6.01%
Cc1ccc(-n2nnnc2-c2nc3ccccc3s2)cc1	42.3%
CCc1ccc(-c2csc(NC(=O)C3=NN(c4ccccc4)C(=O)CC3)n2)cc1	16.8%
Cc1c(N2CCCC2)cc2c(c1NC(=O)c1ccccc1Cl)C(C)(C)CC2(C)C	-25.6%
O=C(Nc1ccccc1)NN1CC(=O)N(c2ccc(Cl)cc2)CC1=O	17.8%
CCC(C)(C)NC(=O)C(c1cccn1C)N(Cc1ccc(OC)cc1)C(=O)Cn1nnc2ccccc21 (stereo not shown)	-3.98%
